# According to PubChem BioAssay AID504333 (National Center for Advancing Translational Sciences (NCATS), 2011):
# Hit rate of the full screen: of about 360,000 compounds, about 16,000 (4.4%) were called active. Inconclusive means that the source gave no clear call. Such entries were picked first, then a sample of the others. Calls come from the whole dose curve; as a rule, active = well fitted inhibition curve with a large enough effect; inconclusive = small, poorly fitted or top-dose-only effect; inactive = no such curve, though single readings can be large or run the other way. Potencies of inconclusive entries are doubtful fits and often do not repeat.
# Target: Bromodomain adjacent to zinc finger domain protein 2B (Homo sapiens) (UniProt Q9UIF8)
# Test: qHTS Assay for Inhibitors of BAZ2B; note: nearly all actives have a fitted effect of over 60% in size
# Settings: AlphaScreen BAZ2B-H3K14Ac peptide displacement; activity change, negative = inhibition: at 114 µM (top of the series)
# Procedure, shortened: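 Inhibition is scored as reduced AlphaScreen emission. The BAZ2B/b-H3(5-23)K14Ac complex (50 nM each) in PBS pH 7.4, 0.01% Tween-20 meets compound (up to 110 uM) for 30 min at RT before bead addition.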
# % is set by controls: 0 for no effect and ±100 for the full control effect; potency is the fitted concentration of half-maximal effect; tags give direction and shape of the fitted curve.
# Sequence of UniProt Q9UIF8 (Q9UIF8 whole entry, looked up, the tested form may be a part): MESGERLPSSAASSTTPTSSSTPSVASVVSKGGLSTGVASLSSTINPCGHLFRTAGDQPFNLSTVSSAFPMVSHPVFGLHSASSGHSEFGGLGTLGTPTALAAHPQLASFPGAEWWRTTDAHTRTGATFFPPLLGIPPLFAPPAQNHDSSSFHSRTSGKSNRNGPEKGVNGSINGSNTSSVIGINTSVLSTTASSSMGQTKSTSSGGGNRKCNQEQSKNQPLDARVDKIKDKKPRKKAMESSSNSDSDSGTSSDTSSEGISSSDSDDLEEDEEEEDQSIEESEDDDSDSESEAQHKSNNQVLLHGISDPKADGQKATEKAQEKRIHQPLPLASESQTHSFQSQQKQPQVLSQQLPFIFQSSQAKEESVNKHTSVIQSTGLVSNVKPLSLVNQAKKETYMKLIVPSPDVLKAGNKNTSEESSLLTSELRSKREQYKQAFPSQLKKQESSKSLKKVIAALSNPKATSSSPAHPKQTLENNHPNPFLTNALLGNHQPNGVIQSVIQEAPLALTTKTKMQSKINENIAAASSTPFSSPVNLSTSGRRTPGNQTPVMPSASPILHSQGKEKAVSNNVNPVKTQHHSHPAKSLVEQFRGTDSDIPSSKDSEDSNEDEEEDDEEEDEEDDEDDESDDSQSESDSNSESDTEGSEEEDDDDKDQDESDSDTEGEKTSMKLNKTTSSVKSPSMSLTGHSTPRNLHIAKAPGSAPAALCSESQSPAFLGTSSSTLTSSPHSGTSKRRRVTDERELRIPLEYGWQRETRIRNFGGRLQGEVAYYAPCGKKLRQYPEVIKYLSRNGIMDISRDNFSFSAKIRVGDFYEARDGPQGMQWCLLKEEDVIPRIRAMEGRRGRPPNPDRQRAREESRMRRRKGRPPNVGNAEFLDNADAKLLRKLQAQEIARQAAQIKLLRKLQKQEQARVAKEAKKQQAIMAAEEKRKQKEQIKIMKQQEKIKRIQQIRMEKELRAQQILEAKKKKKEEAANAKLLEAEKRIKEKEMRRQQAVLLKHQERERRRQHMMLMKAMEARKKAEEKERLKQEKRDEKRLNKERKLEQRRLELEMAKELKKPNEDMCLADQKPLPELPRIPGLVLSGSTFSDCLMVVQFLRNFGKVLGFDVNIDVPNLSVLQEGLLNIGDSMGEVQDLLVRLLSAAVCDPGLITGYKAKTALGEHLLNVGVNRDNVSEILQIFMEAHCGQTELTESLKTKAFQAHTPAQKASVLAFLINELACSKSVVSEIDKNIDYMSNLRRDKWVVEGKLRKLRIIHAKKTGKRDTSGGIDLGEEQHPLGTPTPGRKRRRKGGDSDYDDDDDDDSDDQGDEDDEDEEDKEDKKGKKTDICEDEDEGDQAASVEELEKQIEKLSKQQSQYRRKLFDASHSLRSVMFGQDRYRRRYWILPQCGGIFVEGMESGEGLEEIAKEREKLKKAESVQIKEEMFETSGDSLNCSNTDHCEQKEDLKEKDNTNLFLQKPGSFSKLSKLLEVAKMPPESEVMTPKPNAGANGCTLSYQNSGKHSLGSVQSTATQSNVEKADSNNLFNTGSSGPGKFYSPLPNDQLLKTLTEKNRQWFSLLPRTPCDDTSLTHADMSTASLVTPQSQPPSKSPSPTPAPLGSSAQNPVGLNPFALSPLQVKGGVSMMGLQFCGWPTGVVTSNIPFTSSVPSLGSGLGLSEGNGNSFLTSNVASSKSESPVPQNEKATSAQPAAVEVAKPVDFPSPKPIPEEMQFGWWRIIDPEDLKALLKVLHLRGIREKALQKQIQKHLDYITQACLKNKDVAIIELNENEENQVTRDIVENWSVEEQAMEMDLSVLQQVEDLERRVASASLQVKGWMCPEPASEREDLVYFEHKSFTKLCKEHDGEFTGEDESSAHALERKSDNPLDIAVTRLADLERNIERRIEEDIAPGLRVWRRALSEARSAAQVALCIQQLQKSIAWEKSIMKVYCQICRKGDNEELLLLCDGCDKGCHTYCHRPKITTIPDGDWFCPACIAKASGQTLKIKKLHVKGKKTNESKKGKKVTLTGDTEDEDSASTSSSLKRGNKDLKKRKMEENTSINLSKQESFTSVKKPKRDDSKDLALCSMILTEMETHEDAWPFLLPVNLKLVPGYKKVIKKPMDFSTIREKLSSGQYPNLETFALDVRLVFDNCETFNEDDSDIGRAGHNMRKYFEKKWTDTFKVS
Compound,"activity change, negative = inhibition",Potency
CCN1CCCc2cc(CN(CCN3CCOCC3)C(=S)Nc3ccc(OC)c(OC)c3)ccc21,inactive: -33.8%,–
CCNc1cc(N2CCN(S(=O)(=O)c3ccc4c(c3)CCCC4)CC2)ccc1[N+](=O)[O-],–,"inconclusive: 79.4 µM [inhibitor, single point]"
Cc1sc(NC(=O)CN2CCOCC2)c(C(=O)c2ccccc2)c1C,–,"inconclusive: 79.4 µM [inhibitor, single point]"
Cc1onc(-c2ccccc2)c1C(=O)OCCOc1ccc([N+](=O)[O-])cc1[N+](=O)[O-],–,"inconclusive: 79.4 µM [inhibitor, partial curve]"
S=C(Nc1ccc2c(c1)OCO2)N1CCCC1,–,"inconclusive: 89.1 µM [inhibitor, single point]"
CCCCNCCOCCOc1ccc(C)cc1Br,–,"inconclusive: 79.4 µM [inhibitor, single point]"
O=[N+]([O-])c1ccc(N/N=C\c2cccn2-c2ccccc2)nc1,–,"inconclusive: 31.6 µM [inhibitor, single point]"
CSCCC(NC(=O)C1CCCC1)c1nnc2ccccn12 (centres undefined),inactive: -13.1%,–
CSc1cccc(Nc2nc3c(S(=O)(=O)c4ccccc4)nnn3c3ccc(Cl)cc23)c1,inactive: 1.69%,–
COc1ccc(OC)c(NC(=O)/C=C/c2ccccc2[N+](=O)[O-])c1,–,"inconclusive: 44.7 µM [inhibitor, partial curve]"
Cc1nc(N2CCN(Cc3ccccc3)CC2)nc2c1C(=O)CC(c1ccco1)C2 (centres undefined),–,"inconclusive: 89.1 µM [inhibitor, single point]"
COc1ccc(-n2cc(-c3ccccc3)c3c(NN4CCOCC4)ncnc32)cc1,–,"inconclusive: 35.5 µM [inhibitor, full curve]"
CCOc1ccc(OCc2ccc(C(=O)O)o2)cc1,–,"inconclusive: 100 µM [inhibitor, single point]"
CCOc1ccc(Cl)cc1S(=O)(=O)n1cnc2cc(C)c(C)cc21,–,"inconclusive: 89.1 µM [inhibitor, single point]"
O=C(Cc1ccc(S(=O)(=O)N2CCOCC2)s1)NC1CCCCC1,–,active: 50.1 µM
Cc1ccc(CCNS(=O)(=O)c2ccc3c(c2)N(C)CCO3)cc1,–,"inconclusive: 50.1 µM [inhibitor, partial curve]"
CC(=O)Nc1cccc(NC(=O)C(=O)NCCc2sc(-c3ccccc3)nc2C)c1,inactive: 5.25%,–
Cc1ccc(CN2CCC(C(=O)Nc3cccc(-c4cccc(F)c4)c3)CC2)o1,–,"inconclusive: 89.1 µM [inhibitor, single point]"
COc1cccc(/C=N/NC(=O)c2cc(-c3cccn3C)n[nH]2)c1O,–,"inconclusive: 89.1 µM [inhibitor, single point]"
